Hit rate of the full screen: of about 420,000 compounds, about 50,000 (12%) were called active. The inconclusive results got no clear call from the source; some entries with a clear call stand among them for comparison. Calls come from the whole dose curve; as a rule, active = well fitted inhibition curve with a large enough effect; inconclusive = small, poorly fitted or top-dose-only effect; inactive = flat fitted curve, though single readings scatter. Potencies of inconclusive entries are left out as doubtful fits.
Experiment: qHTS for Inhibitors of human tyrosyl-DNA phosphodiesterase 1 (TDP1): qHTS in cells in presence of CPT; note: nearly all actives have a fitted effect of over 55% in size
Conditions: chicken DT40 Tdp1-/-;hTDP1 cells + 20 nM CPT, ATP luminescence, 48 h; activity change, negative = growth inhibition: at 46.2 µM (top of the series) unless noted
Summary of the method: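 Chicken DT40 Tdp1-/- cells complemented with human TDP1, 400 cells/well, exposed to compounds plus 20 nM camptothecin for at least 48 h at 37 C; viability read as ATP content by CellTiter-Glo luminescence.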
% is set by controls: 0 for no effect and ±100 for the full control effect; potency is the fitted concentration of half-maximal effect; tags give direction and shape of the fitted curve.

Compound | Potency | activity change, negative = growth inhibition
Cc1ccc(-c2nc(N/N=C/c3cccc([N+](=O)[O-])c3)c3ccccc3n2)cc1 | active: 13 µM | –
Cc1cccc(N2C(=O)CC(SC(=Nc3ccccc3)Nc3ccccc3)C2=O)c1 (stereo unspecified) | inconclusive [inhibitor, single point] | –
Cc1ccc2sc(N3CCN(C(=O)C4COc5ccccc5O4)CC3)nc2c1C (stereo unspecified) | inconclusive [inhibitor, partial curve, poor fit] | –
COc1ccc(C(=O)C(=O)N2CCC(c3ccccc3)CC2)cn1 | inconclusive [inhibitor, single point] | –
CC(C)C(=O)Nc1ccc(C(=O)NNC(=S)NC(=O)c2ccco2)cc1 | inconclusive [inhibitor, single point] | –
CSc1nc(N(C)C)nc(N(C)C#N)n1 | inactive | –
CCOc1ccccc1N1CC(C(=O)NCCOc2ccccc2OC)CC1=O (stereo unspecified) | inactive | –
O=C(Nc1ccc2c(c1)OCO2)c1cc(C2CCCCN2S(=O)(=O)c2ccccc2)on1 (stereo unspecified) | active: 16.4 µM | –
CN(C)C(=O)c1cn(-c2ccccc2)c(=O)c2ccccc12 | inactive | –
Cc1ccc(S(=O)(=O)N2CC3(O)CN(C(=O)OC(C)C)N(C(=O)OC(C)C)CC3(OC(=O)NCc3ccccc3)C2)cc1 (stereo unspecified) | inconclusive [inhibitor, single point] | –
COc1ccc2oc(-c3ccccc3)c(C(=O)N3CCOCC3)c2c1 | active: 16.4 µM | –
Cc1c(C(=O)N(C)C)sc(NC(=O)c2cccc([N+](=O)[O-])c2)c1C#N | inactive | –
COc1ccc(C2c3[nH]c4ccccc4c3C[C@H]3C(=O)N(C4CCN(Cc5ccccc5)CC4)CC(=O)N23)cc1OC (stereo partly specified) | active: 20.6 µM | –
CCC(=O)N1CCC1(C)C(=O)Nc1ccc(C)c(C)c1 (stereo unspecified) | inactive | –
NNC(=O)c1ccc(O)cc1O | inactive | –
CN[C@H]1C[C@H]2c3cc(N4CCN(C)CC4)ccc3CCN2C(=O)[C@H]1[C@H](C)O | inactive | –
COc1ccc(NC(=O)Nc2cn(CC(C)C)c(=O)c3ccccc23)c(OC)c1 | inconclusive [inhibitor, single point] | –
Cc1cccc(-n2cc(CNCCN3CCOC3=O)c(-c3cccc(F)c3)n2)c1 | inconclusive [inhibitor, single point] | –
Cc1cc(F)ccc1S(=O)(=O)Nc1ccccc1C(=O)Nc1ccccc1-c1nc2ccccc2[nH]1 | active: 5.8 µM | –
CCn1c(CNC(=O)c2ccccc2F)nnc1SCCOc1ccccc1 | – | inconclusive: -18.1% [inhibitor]
COc1cccc(N/C(SC)=C(/C#N)C(N)=O)c1 | inconclusive [inhibitor, single point] | –
